The source of these data is article PMC10022797.

Like-named read-outs stand apart in the source and are kept apart here.

Test [1] concerns the target GST-His6-BICD2-CT (aa 630–820) R690C (mouse) (UniProt Q921C5). Put plainly: pull-down; GST-His6-BICD2-CT WT or mutant on glutathione magnetic beads, incubated 3 hrs at 4°C with untransfected or GFP-Nesprin-2 expressing HeLaM lysate (RIPA buffer); immunoblot with anti-RanBP2, anti-GFP and anti-GST, signal ratio normalised to wildtype.
Test [2] has the same target. Described as above. This is another data set of the same source.

Sequence of UniProt Q921C5 (Q921C5 630-820 R690C): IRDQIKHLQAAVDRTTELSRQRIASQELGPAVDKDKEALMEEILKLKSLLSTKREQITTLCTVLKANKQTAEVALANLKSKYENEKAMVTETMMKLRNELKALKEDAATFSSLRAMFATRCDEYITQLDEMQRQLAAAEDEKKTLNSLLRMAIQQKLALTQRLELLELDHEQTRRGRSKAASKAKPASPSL

As to “RanBP2, endogenous in HeLaM cells (a stretch of the chain, letters omitted) (natural protein)”, the results for the fold change in RanBP2 binding against wildtype BICD2-CT in test [1] and in test [2] were 2.8 fold and 2 fold, respectively.
